From PubChem BioAssay AID504332 (National Center for Advancing Translational Sciences (NCATS), 2011)
About 31,000 (8.9%) of roughly 350,000 compounds were called active. This list was built around the results that the source calls inconclusive (neither active nor inactive); the mix of calls is not that of the screen. The call rests on the fitted dose curve; in most records, active means well fitted inhibition curve with a large enough effect; inconclusive means small, poorly fitted or top-dose-only effect; inactive means no such curve, though single readings can be large or run the other way. Potencies beside an inconclusive call are fits to weak or partial responses and may not hold up.

Target: Histone-lysine N-methyltransferase EHMT2 (Homo sapiens) (UniProt Q96KQ7)
UniProt Q96KQ7, sequence (Q96KQ7 whole entry, looked up): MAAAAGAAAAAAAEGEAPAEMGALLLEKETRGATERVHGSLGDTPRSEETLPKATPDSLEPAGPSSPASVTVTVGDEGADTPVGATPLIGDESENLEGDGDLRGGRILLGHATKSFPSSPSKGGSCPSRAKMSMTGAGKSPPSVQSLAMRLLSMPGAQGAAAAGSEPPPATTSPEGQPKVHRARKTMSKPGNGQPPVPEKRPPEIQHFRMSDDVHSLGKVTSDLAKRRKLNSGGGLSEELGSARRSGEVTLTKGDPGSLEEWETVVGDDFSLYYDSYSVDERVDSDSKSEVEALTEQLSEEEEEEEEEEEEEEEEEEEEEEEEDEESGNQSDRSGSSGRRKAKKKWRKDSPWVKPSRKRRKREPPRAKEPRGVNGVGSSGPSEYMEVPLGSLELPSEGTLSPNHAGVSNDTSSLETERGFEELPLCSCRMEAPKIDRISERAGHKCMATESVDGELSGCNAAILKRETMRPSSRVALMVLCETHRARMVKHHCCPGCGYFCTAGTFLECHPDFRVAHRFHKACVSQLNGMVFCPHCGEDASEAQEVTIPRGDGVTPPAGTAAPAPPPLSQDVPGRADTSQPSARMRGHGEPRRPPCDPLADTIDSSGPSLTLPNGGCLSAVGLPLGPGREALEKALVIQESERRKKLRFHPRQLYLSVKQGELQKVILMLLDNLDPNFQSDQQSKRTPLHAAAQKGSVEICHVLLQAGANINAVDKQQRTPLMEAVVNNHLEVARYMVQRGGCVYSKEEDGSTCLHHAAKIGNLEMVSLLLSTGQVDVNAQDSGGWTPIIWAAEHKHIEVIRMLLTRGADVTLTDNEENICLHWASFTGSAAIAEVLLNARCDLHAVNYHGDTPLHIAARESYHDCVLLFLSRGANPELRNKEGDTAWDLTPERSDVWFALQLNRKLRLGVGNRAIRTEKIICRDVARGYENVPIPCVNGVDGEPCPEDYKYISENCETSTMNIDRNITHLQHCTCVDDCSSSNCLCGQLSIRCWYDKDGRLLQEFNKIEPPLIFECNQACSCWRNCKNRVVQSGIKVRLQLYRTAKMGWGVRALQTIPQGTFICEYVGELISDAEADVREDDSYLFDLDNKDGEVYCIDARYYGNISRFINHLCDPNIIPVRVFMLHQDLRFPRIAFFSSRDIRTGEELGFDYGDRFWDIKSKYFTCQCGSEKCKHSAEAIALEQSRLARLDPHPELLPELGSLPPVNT
Assay: qHTS Assay for Inhibitors of Histone Lysine Methyltransferase G9a; further: nearly all actives have a fitted effect of over 75% in size
Settings: G9a H3K9 monomethylation, AlphaScreen, 2 h; activity, negative = inhibition: at 59 µM (top of the series) unless noted
Method in brief: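 AlphaScreen detection with an anti-monomethyl H3K9 antibody quantified product after a 2 h room-temperature reaction containing 500 nM biotinylated H3K9 peptide, 20 µM SAM and 20 nM enzyme, which had been preincubated 15 min with compound.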
On the % scale 0 is the no-effect control and ±100 the full control effect; potency means the concentration at half of the fitted maximal effect; tags describe the fitted curve by direction and shape.

SMILES	Potency	activity, negative = inhibition
COc1cc(C(C)=O)ccc1OCC(=O)Nc1ccccc1N1CCCC1	inconclusive: 89.1 µM [inhibitor, single point]	
O=Nc1c(O)n(Cc2cccc(C(F)(F)F)c2)c2ccccc12	inconclusive: 50.1 µM [inhibitor, partial curve]	
COC(=O)c1ccc2c(c1)N(CC(=O)Nc1cccc(C(F)(F)F)c1)C(=O)c1ccccc1S2	inactive	
Cc1cc(C(=O)O)ccc1-c1ccc(/C=C2\NC(=O)N(Cc3ccc(F)cc3)C2=O)o1	active: 28.2 µM	
O=C1C2C3C=CC(C4CC34)C2C(=O)N1c1ccc2c(c1)OCO2 (stereo not given)	active: 50.1 µM	
COc1ccc(C2C(C(C)=O)=C(O)C(=O)N2c2nccs2)cc1 (stereo not given)	inconclusive: 28.2 µM [inhibitor, single point]	
O=C(NC1CCCCC1)c1ccc(CNc2ccccc2)o1	inconclusive: 56.2 µM [inhibitor, partial curve, poor fit]	
COC(=O)c1ccc(Nc2cc(C)nc3nc(C)nn23)cc1	inconclusive: 89.1 µM [inhibitor, single point]	
CCCCN1C(=O)C(O)(CC(=O)c2c(C)coc2C)c2ccccc21 (stereo not given)	inconclusive: 89.1 µM [inhibitor, single point]	
CC(=O)N1c2ccccc2C(=O)C1N(C)c1ccc(C)cc1 (stereo not given)	inconclusive: 7.94 µM [inhibitor, single point]	
Cc1[nH]n(-c2ccccc2)c(=O)c1C=NCc1ccncc1	inactive	
O=C(CC1C(=O)NCCN1Cc1cccc(F)c1F)NCCCC1CCCC1 (stereo not given)	active: 50.1 µM	
COc1cc(/C=N/N2CCN(C3c4ccccc4-c4ccccc43)CC2)cc(OC)c1OC	active: 50.1 µM	
CCOC(=O)C1CCN(Cc2ccc(F)cc2)CC1	inconclusive: 22.4 µM [inhibitor, single point]	
Cc1cc(/C=C2\Sc3ccccc3N2C)cc(C)[n+]1CC1CCCO1 (stereo not given)		inconclusive: -96.6% [inhibitor]
COc1cccc(CNC(=O)COc2cccc(-n3cnnn3)c2)c1	inconclusive: 89.1 µM [inhibitor, partial curve, poor fit]	
COc1ccc(/C=C2\SC(=S)N(CCC(=O)NCCCN3CCOCC3)C2=O)cc1	inconclusive: 56.2 µM [inhibitor, partial curve, poor fit]	
C=CC[n+]1c(C)csc1Nc1cccc(Br)c1	active: 31.6 µM	
O=C(CN1CCN(CCO)CC1)Nc1ccccc1	inconclusive: 31.6 µM [inhibitor, single point]	
O=c1ccc(-c2ccc([N+](=O)[O-])cc2)nn1-c1ccccc1	inactive	
